In PubChem BioAssay AID504832 (National Center for Advancing Translational Sciences (NCATS), 2011):
Among all 310,000 compounds or so, about 18,000 (5.8%) were called active. Inconclusive results, whose numbers are uncertain, are shown with a selection of clear calls. The call rests on the fitted dose curve; in most records, active means well fitted inhibition curve with a large enough effect; inconclusive means small, poorly fitted or top-dose-only effect, or another doubt; inactive means no such curve, though single readings can be large or run the other way. No potency is given beside an inconclusive call; the fits are too rough.
On the % scale 0 is the no-effect control and ±100 the full control effect; potency means the concentration at half of the fitted maximal effect; tags describe the fitted curve by direction and shape.

Assay: Primary qHTS for delayed death inhibitors of the malarial parasite plastid, 48 hour incubation
Details: P. falciparum luciferase growth in erythrocytes; series mostly up to 28.7 µM; activity change, negative = inhibition: at the top concentration
In short: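 Luciferase-expressing P. falciparum in infected erythrocytes (2% hematocrit, 0.1% parasitemia final) in RPMI 1640/0.5% Albumax were exposed to compound for 48 hours at 37 C, 5% CO2; growth read as luminescence.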
For `COc1ccccc1-n1cc(-c2ccc(Br)cc2)[nH]c1=S`, the Potency was inconclusive [inhibitor, partial curve, poor fit].
With `Cc1cc(Oc2ccc(Cl)cc2)nc(-c2ccccc2O)n1` the “activity change, negative = inhibition” value was inactive: -15.8%.
In the case of `CCN1C(=O)c2cccc3c(NC(=O)c4ccc(S(=O)(=O)N5CCOCC5)cc4)ccc1c23`, the Potency is reported as inconclusive [inhibitor, single point].
For `CC(C)(C)OC(=O)N1CCC(NC(=O)c2[nH]cnc2C(=O)Nc2cccc(Cl)c2)CC1`, the Potency was inconclusive [inhibitor, partial curve, poor fit].
With `Cc1ccc(N=C/C(C(=O)C(F)(F)F)=C(\O)c2ccco2)cc1Cl` the “activity change, negative = inhibition” value was inactive: 0.959%.
In the case of `CC(C)C[C@@H](CSc1ccc(Br)cc1)N1CCN(CC(C)C)CCC1=O`, the Potency is reported as inconclusive [inhibitor, partial curve, poor fit].
For `CN(CC(=O)Nc1ccccc1Br)C(=O)CCCSc1nc2ccccc2[nH]1`, the “activity change, negative = inhibition” value was inactive: -19.1%.
For `O=C1c2ccccc2C(=O)c2[nH]cnc21`, the Potency was inconclusive [inhibitor, single point].
For `CC1CCN(CC(=O)Nc2ccccc2-c2ccccc2)CC1`, the Potency was inconclusive [inhibitor, partial curve, poor fit].
With `COc1cc(NC(=O)c2cc(-c3cccnc3)nc3ccc(Br)cc23)cc(OC)c1` the Potency was inconclusive [inhibitor, full curve].
For `Cc1ccc(-c2nn3c(C)nnc3c3ccccc23)cc1S(=O)(=O)N1CCN(CCO)CC1`, the Potency was inconclusive [inhibitor, partial curve].
With `O=C1C2CC=CCC2C(=O)N1c1ccc(N2CCN(c3ccccn3)CC2)c([N+](=O)[O-])c1` (stereo not drawn) the “activity change, negative = inhibition” value was inactive: 11.2%.
With `CN(Cc1cnccn1)Cc1ccccc1OCC(O)CN1CCc2ccccc2C1` (stereo not drawn) the Potency was active: 11.7 µM.
With `CCOC(=O)c1ccccc1NC(=O)N1CCn2c(C)ccc2C1CC` (stereo not drawn) the “activity change, negative = inhibition” value was inactive: 0%.
With `COC(=O)c1ccc(CSc2nc(C(F)(F)F)c3c(c2C#N)CCC3)o1` the Potency was inconclusive [inhibitor, partial curve, poor fit].
With `CCc1ccc(NC(=O)Cn2cnc3c(=O)n(C)c(=O)n(C)c32)cc1` the “activity change, negative = inhibition” value was inactive: -0.0463%.
For `CC(CN1CCC(n2nccc2NC(=O)C2CCCC2)CC1)c1ccccc1` (stereo not drawn), the “activity change, negative = inhibition” value was inactive: 33.6%.
With `CCOC(=O)CSc1n[nH]c(NC(=O)CC)n1` the Potency was inconclusive [inhibitor, full curve, poor fit].
With `CC12CCC(=O)N1C(C(=O)Nc1ccc(S(=O)(=O)N3CCCCC3)cc1)CS2` (stereo not drawn) the Potency was inconclusive [inhibitor, single point].
With `COC(=O)c1n[nH]c2ccccc12` the “activity change, negative = inhibition” value was inactive: 7.92%.
For `COC(=O)C1=CNC=C(C(=O)OC)C1c1ccc(C(=O)OC)cc1`, the Potency was inconclusive [inhibitor, single point].
For `CCCCCOc1ccc(Cn2ccnc2)cc1[N+](=O)[O-]`, the Potency was inconclusive [inhibitor, single point].
In the case of `CC(C)Cn1c(=O)c(CCC(=O)Nc2ccc(N3CCOCC3)cc2)nc2cc(Cl)ccc21`, the Potency is reported as inconclusive [inhibitor, full curve, poor fit].
In the case of `Cc1[nH]nc2c1C(c1ccc(Cl)cc1)C(C#N)=C(N)O2` (stereo not drawn), the “activity change, negative = inhibition” value is reported as inactive: -0.266%.
For `CCCN(C(=O)CSc1nc2cc(S(=O)(=O)N(CC)CC)ccc2o1)C1CCS(=O)(=O)C1` (stereo not drawn), the Potency was inconclusive [inhibitor, partial curve, poor fit].
For `Cc1ccc(-c2nnc(SCC(=O)N3CCCC3)o2)cc1`, the “activity change, negative = inhibition” value was inactive: 29.4%.
With `CN(C)c1ccc(N=C/C=C2\N(C)c3ccccc3C2(C)C)cc1` the Potency was inconclusive [inhibitor, full curve, poor fit].
In the case of `C=CCn1c(CNc2ccccc2)nnc1SCC(=O)N/N=C/c1ccc(O)cc1O`, the Potency is reported as inconclusive [inhibitor, single point].
For `O=C(CSc1nnc(-c2ccc(F)cc2)c2ccccc12)NCC1CCCO1` (stereo not drawn), the Potency was inconclusive [inhibitor, partial curve].
In the case of `CCOc1ccccc1N(C(=O)c1snc(C(N)=O)c1N)C(C(=O)NC1CCCC1)c1cccs1` (stereo not drawn), the Potency is reported as active: 9.28 µM.
With `Cc1nc(NC(=O)CN2CCC(O)(c3ccc(F)cc3)CC2)sc1C` the “activity change, negative = inhibition” value was inactive: -23.6%.
In the case of `O=c1c2c(nc3cc(-c4cccc(F)c4)[nH]n13)CCC2`, the “activity change, negative = inhibition” value is reported as inactive: 150%.
For `COc1cc2c(cc1O)C(SC)=NC(C)(C)C2`, the Potency was inconclusive [inhibitor, partial curve, poor fit].
In the case of `O=C(COc1ccccc1F)NCC(c1ccc(F)cc1)N1CCOCC1` (stereo not drawn), the Potency is reported as inconclusive [inhibitor, single point].
With `Cc1ccc(S(=O)(=O)N2CCCCC2)cc1C(=O)NCCc1ccccc1` the Potency was inconclusive [inhibitor, single point].
With `COC(=O)[C@]1(Cc2ccccc2)N[C@H](c2ccc(-c3cccc(Cl)c3)cc2)[C@@H]2C(=O)N(C)C(=O)[C@@H]21` the Potency was active: 13.1 µM.
In the case of `CC(C)c1onc(C(=O)NCc2ccccc2)c1[N+](=O)[O-]`, the Potency is reported as inconclusive [inhibitor, single point].
For `S=C(Nc1ccc(Cl)c(Cl)c1)NC1CCCCC1`, the Potency was active: 13.1 µM.
For `O=C(Nc1ccccc1)C1=C[C@H](c2ccc(C(F)(F)F)cc2)C[C@H](OCc2ccc(CO)cc2)O1`, the Potency was inconclusive [inhibitor, single point].
With `Cc1ccccc1NN=Nc1nc2c([nH]1)c(=O)n(C)c(=O)n2C` the “activity change, negative = inhibition” value was inactive: 18.4%.
With `O=C(CSc1nnc(CNC(=O)c2ccco2)o1)Nc1ccc(F)cc1F` the “activity change, negative = inhibition” value was inactive: 12%.
In the case of `CCOC(=O)[C@H]1[C@H]2COc3ccc(Cl)cc3[C@@H]2N2C(=O)c3cc(C)ccc3NC(=O)[C@@]12C`, the Potency is reported as inconclusive [inhibitor, single point].
With `CC(=O)C(Cc1ccccc1)NC(=O)CN1c2cccc3cccc(c23)S1(=O)=O` (stereo not drawn) the Potency was inconclusive [inhibitor, single point].
For `COc1ccc(N2CCN(C(c3ccccc3)c3sc4nc(C)nn4c3O)CC2)cc1` (stereo not drawn), the Potency was inconclusive [inhibitor, single point].
For `COc1cccc(NC(=O)c2ccc(S(=O)(=O)N3CCCC3)cc2)c1`, the “activity change, negative = inhibition” value was inactive: -5.76%.
With `COc1cc(C(C(=O)NCc2ccccc2)N(C(=O)c2snc(C(N)=O)c2N)C2CCCC2)cc(OC)c1OC` (stereo not drawn) the Potency was active: 13.1 µM.
For `CCCCn1c(=O)c(CCC(=O)OCC(=O)Nc2ccc(F)c(Cl)c2)nc2ccccc21`, the “activity change, negative = inhibition” value was inactive: 0.708%.
In the case of `OCCNc1nc(N2CCN(Cc3ccccc3)CC2)nc2ccccc12`, the Potency is reported as inconclusive [inhibitor, single point].
In the case of `CN(C)c1ccccc1-c1csc(N2CCC(C(N)=O)CC2)n1`, the Potency is reported as inconclusive [inhibitor, single point].
For `CC1(C)CC2(CCCN(CC(O)(c3ccccc3)c3ccccc3)C2)CCO1` (stereo not drawn), the Potency was inconclusive [inhibitor, single point].
With `COc1ccc(N2CCN(Cc3nc4scc(-c5ccccc5)c4c(=O)[nH]3)CC2)cc1` the Potency was inconclusive [inhibitor, partial curve, poor fit].
In the case of `Cc1ccc(NC(=O)/C=C/C(=O)O)c(NC(=O)c2ccccc2)c1`, the “activity change, negative = inhibition” value is reported as inactive: 21.7%.
For `COc1ccc(S(=O)(=O)n2nc(-n3c(C)ccc3C)c3c(F)cccc32)cc1OC`, the Potency was active: 5.86 µM.
For `COc1ccc(Nc2c(-c3ccco3)nc3ccc(C)cn23)cc1`, the Potency was inconclusive [inhibitor, single point].
With `CCC(=NCCC1=CCCCC1)c1c(O)[nH]c(=O)[nH]c1=O` the Potency was inconclusive [inhibitor, full curve, poor fit].
With `Cc1ccc(C)c(S(=O)(=O)Nc2nc3ccc(S(N)(=O)=O)cc3s2)c1` the Potency was inconclusive [inhibitor, partial curve, poor fit].
With `CC[C@@]12C(=O)N(c3ccc(C)cc3)C(=O)N1[C@H](c1cccc(C)c1)[C@@H]1C(=O)N(Cc3ccccc3)C(=O)[C@@H]12` the Potency was inconclusive [inhibitor, partial curve, poor fit].
For `NNC(=O)c1cc(-c2ccc(O)cc2)nc2ccc(Br)cc12`, the Potency was inconclusive [inhibitor, single point].
With `COc1ccc(C2=NN(C(C)=O)CC2c2cccc([N+](=O)[O-])c2)cc1` (stereo not drawn) the Potency was inconclusive [inhibitor, partial curve, poor fit].
In the case of `Cc1ccc(/C=C/C(=O)N2CCN(S(=O)(=O)c3c(C)c(C)cc(C)c3C)CC2)o1`, the Potency is reported as active: 7.38 µM.
For `CCC[C@@H]1C[C@@]1(CCC)[C@@H](NC(=O)c1ccccc1)c1ccc(C(=O)OC)cc1`, the Potency was inconclusive [inhibitor, full curve].
With `COc1ccccc1N=C1SC(C(=O)Nc2ccc(F)cc2)CC(=O)N1C` (stereo not drawn) the Potency was active: 10.4 µM.
In the case of `C/C(=N/NC(=S)Nc1cccc(C)c1)c1cccc([N+](=O)[O-])c1`, the Potency is reported as active: 11.7 µM.
For `CC(C)CCn1c(N)c(C(=O)OCC2CCCO2)c2nc3ccccc3nc21` (stereo not drawn), the Potency was inconclusive [inhibitor, single point].
For `Cc1ccc(C(=O)NC(C)c2ccccc2)o1` (stereo not drawn), the “activity change, negative = inhibition” value was inactive: 0.792%.
In the case of `Cc1onc2c(=O)n(-c3ccccc3)nc(-c3ccccc3)c12`, the Potency is reported as inconclusive [inhibitor, partial curve, poor fit].
For `O=C(Cc1ccccc1F)NC1CCCN(Cc2ccc(Cl)cc2)C1` (stereo not drawn), the Potency was inconclusive [inhibitor, single point].
In the case of `Cc1nn(Cc2ccc(C(=O)Nc3ccccc3F)cc2)c(C)c1Cl`, the Potency is reported as inconclusive [inhibitor, full curve, poor fit].
